# From PubChem BioAssay AID881 (National Center for Advancing Translational Sciences (NCATS), 2007)
# “And” between values parts separate entries of the source, which are not always exact repeats. Identical values can stand only once. Out of some 110,000 compounds screened, about 610 (0.55%) were called active. Inconclusive means that the source gave no clear call. Such entries were picked first, then a sample of the others. Calls follow the shape of the dose curve; as a rule, active = well fitted inhibition curve with a large enough effect; inconclusive = small, poorly fitted or top-dose-only effect; inactive = no such curve, though single readings can be large or run the other way. Where the call is inconclusive, the potency comes from a doubtful curve fit.
# Target: Polyunsaturated fatty acid lipoxygenase ALOX15B (Homo sapiens) (UniProt O15296)
# Test: qHTS Assay for Inhibitors of 15-hLO-2 (15-human lipoxygenase 2); also: nearly all actives have a fitted effect of over 60% in size
# Conditions: purified 15hLO-2, xylenol orange hydroperoxide absorbance; activity change, negative = inhibition: at 57.1 µM (top of the series) unless noted
# Source text: Assay Overview: NIH Molecular Libraries Screening Centers Network [MLSCN] NIH Chemical Genomics Center [NCGC] MLSCN Grant: MH081283-01A1 PI Name: Holman, T.R., University of California, Santa Cruz Human lipoxygenase 15hLO-2 is a member of the closely related lipoxygenase family of enzymes which catalyze the site-specific oxidation of arachidonic acid to various hormone precursor molecules and as such is a candidate for drug development in a variety of disease areas, such as cancer and inflammation. Inhibition of 15hLO-2 activity was screened by utilizing arachidonic acid as a substrate. The extent of hydroperoxide product formation was measured by a secondary chromogenic reaction in which xylenol orange (XO, Sigma-Aldrich, cat. number 39,818-7) reacts with the ferric ions produced from the reaction between the hydroperoxide and ferrous ions. The Fe(III)-XO complex is characterized with red-shifted absorbance at 560 nm. A purified preparation of human 15hLO-2 was supplied by Professor Ted Holman, University of California, Santa Cruz.
# Assay Protocol: Buffer: 25 mM Hepes pH 7.5, 0.01% Triton X-100. Reagents/Controls: Buffer in columns 3 and 4 as negative control (no enzyme). Substrate solution: 45 uM arachidonic acid (Sigma-Aldrich, St. Louis, MO) final concentration dispensed throughout the plate. Enzyme: 50 nM 15hLO-2 final concentration in columns 1, 2, 5-48. Column 1 is neutral (100% activity). Column 2 contained pin-transferred titration of NDGA (nordihidroguaiaretic acid, Sigma-Aldrich, N 5023, top concentration 10 mM in DMSO, then 1:2 dilution in duplicate). (Dilution factor: 23 nL into 4 uL.) Chromogenic detection reagent (divalent iron/xylenol orange, Fe-XO): 200 uM xylenol orange plus 300 uM ferrous ammonium sulfate prepared freshly in 50 mM sulfuric acid. Assay Steps: Three uL of enzyme were dispensed to 1536-well Greiner black clear bottom plates. Compounds and controls (23 nL) were transferred via Kalypsys PinTool. The plates were incubated for 15 min at room temperature, and then 1 uL of substrate solution was added to start the reaction. After room temperature incubation for 90 minutes, 4 uL of Fe-XO solution was added to each well followed by a short spin (1000 rpm, 15 sec) and the plates were then incubated for 30 min. The absorbance at 405 and 573 nm were measured using ViewLux (Perkin-Elmer) High-throughput CCD imager and absorbance protocol settings. The 573-to-405 absorbance ratio was used to compute reaction progress.
# % is scaled to controls: 0 for no effect and ±100 for the full control effect; potency is read from the fitted curve at half-maximal effect; tags tell the direction and shape of the fitted curve.
# Sequence of UniProt O15296 (O15296 whole entry, looked up): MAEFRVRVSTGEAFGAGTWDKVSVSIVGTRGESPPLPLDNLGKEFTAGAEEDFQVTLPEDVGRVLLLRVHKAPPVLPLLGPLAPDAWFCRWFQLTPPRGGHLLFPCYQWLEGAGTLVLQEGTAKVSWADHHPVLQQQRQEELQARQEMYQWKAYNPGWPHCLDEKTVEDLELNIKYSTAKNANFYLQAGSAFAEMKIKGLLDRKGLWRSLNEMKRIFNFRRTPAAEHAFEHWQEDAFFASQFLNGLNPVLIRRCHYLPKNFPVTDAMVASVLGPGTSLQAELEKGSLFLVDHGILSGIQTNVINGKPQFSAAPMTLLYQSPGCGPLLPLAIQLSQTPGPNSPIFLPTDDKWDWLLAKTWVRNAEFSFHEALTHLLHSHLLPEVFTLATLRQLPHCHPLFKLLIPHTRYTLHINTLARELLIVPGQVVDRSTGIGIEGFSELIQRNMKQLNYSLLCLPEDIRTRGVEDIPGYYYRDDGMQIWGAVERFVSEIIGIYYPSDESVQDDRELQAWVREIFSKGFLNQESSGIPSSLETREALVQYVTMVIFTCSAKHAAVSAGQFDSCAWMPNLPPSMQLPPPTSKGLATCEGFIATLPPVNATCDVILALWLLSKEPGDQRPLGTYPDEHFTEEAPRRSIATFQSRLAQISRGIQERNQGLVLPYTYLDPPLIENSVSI
SMILES,Potency,"activity change, negative = inhibition"
CCCCCOP(=O)(OCCCCC)C1(NS(=O)(=O)c2ccccc2)C=CC(=O)c2ccccc21 (configuration not stated),"inconclusive: 2.51 µM [inhibitor, full curve]",–
CC(C)CC(=O)NC(=S)NCCc1ccccc1,"inconclusive: 20 µM [inhibitor, partial curve]",–
COc1cc(/C=C(\C#N)c2nc3ccc(C)cc3[nH]2)c([N+](=O)[O-])cc1OC,"inconclusive: 31.6 µM [inhibitor, single point]",–
S=C(Nc1ccc(Cl)c(Cl)c1)NC1CCCCC1,"inconclusive: 7.94 µM [inhibitor, single point]",–
Cc1nc(CCN2C(=O)c3ccccc3C2=O)cs1,–,inactive: 7.37%
CN(C)c1ccc(N=C/C=C2\N(C)c3ccccc3C2(C)C)cc1,"inconclusive: 15.8 µM [inhibitor, partial curve]",–
C/C(Cl)=C/CCl,–,inactive: -11.1%
COc1ccc(CNC(=O)Cc2csc(Nc3nc(=S)[nH]c4ccccc34)n2)cc1,"inconclusive: 15.8 µM [inhibitor, partial curve]",–
Cc1ccc(-c2nn(C)c(=O)c3ccccc23)cc1CNC(=O)Cn1nc(-c2ccccc2)c2ccccc2c1=O,"inconclusive: 20 µM [inhibitor, partial curve]",–
Oc1ccc2c(c1)OCC1(O)Cc3cc(O)c(O)cc3C21 (configuration not stated),"inconclusive: 2 µM [inhibitor, full curve]",–
COc1ccc(C(=S)N2CCCC2)cc1C,–,inactive: -6.88%
O=c1c2c(-c3cccs3)csc2[nH]c(=S)n1-c1ccccc1,"inconclusive: 12.6 µM [inhibitor, partial curve]",–
CC1=C(C(=O)Nc2ccc([N+](=O)[O-])cc2)C(c2cccc(C(F)(F)F)c2)NC(=S)N1c1ccccc1 (configuration not stated),"inconclusive: 31.6 µM [inhibitor, single point]",–
Nc1sc2c(c1C(=O)c1ccccc1)CCCC2,"inconclusive: 15.8 µM [inhibitor, partial curve, poor fit]",–
COC(=O)c1c(-c2cc(OC)c(OC)c(OC)c2)c2ccnc(OCc3ncccn3)c2c(=O)n1Cc1ccnc(C)c1,inactive,–
COc1ccc(C2=NO[C@@H]3C(=O)N(c4ccc(C)cc4C)C(=O)[C@H]23)cc1OC,"inconclusive: 12.6 µM [inhibitor, partial curve]",–
O=C(CS(=O)(=O)Cc1ccccc1)Nc1nc2ccccc2s1,–,inactive: -3.17%
O=C(Nc1nc2c(s1)CCCC2)c1cccnc1,–,inactive: 4.31%
O=C1CC(Cc2ccccc2)C(=O)N1Cc1ccco1 (configuration not stated),"inconclusive: 12.6 µM [inhibitor, partial curve]",–
CCc1ccc2c(c1)C(C)=CC(C)(C)N2,"inconclusive: 31.6 µM [inhibitor, single point]",–
O=C(c1cc(-c2ccco2)on1)N1CCOCC1,–,inactive: -5%
CN(C)c1ccc(-c2nc(NCc3cccnc3)c3ccccc3n2)cc1,–,inactive: 33.9%
CCCCCCCC/C=C\CCCCCCCC(=O)NCCc1ccc(O)c(O)c1,"inconclusive: 3.98 µM [inhibitor, partial curve] and inconclusive: 1 µM [inhibitor, full curve, poor fit]",–
N#Cc1c(NC(=S)NC(=O)Cc2cccs2)sc2c1CCCCC2,"inconclusive: 31.6 µM [inhibitor, partial curve]",–

SMILES,Potency,"activity change, negative = inhibition"
Fc1ccc(C2=Nn3c(Cc4ccccc4F)nnc3SC2)cc1,–,inactive: -1.56%
COC(=O)c1ccc(C(NC(=O)OCc2ccccc2)/C(=C/[C@@H](C)C(=O)NCc2ccc(-c3ccccc3)cc2)c2cccnc2)cc1 (some centres not stated),–,inactive: 23.6%
CN(C)c1ccc(/C=C/C=C2/SC(=S)N(c3ccccc3)C2=O)cc1,"inconclusive: 15.8 µM [inhibitor, partial curve]",–
O=C(COc1ccccc1)NC(NC(=S)Nc1ccccc1C(=O)O)C(Cl)(Cl)Cl (configuration not stated),"inconclusive: 10 µM [inhibitor, partial curve]",–
CCOc1cccc(CNc2ccc(O)cc2)c1OCc1ccc(Cl)cc1,"inconclusive: 5.01 µM [inhibitor, partial curve]",–
Cc1cccc(-n2c(-c3csc(C(C)C)c3)n[nH]c2=S)c1,"inconclusive: 7.94 µM [inhibitor, partial curve]",–
CCCCCn1c(CN2CCN(CCO)CC2)nc2c1c(=O)n(C)c(=O)n2C,–,inactive: -2.49%
CNc1ccnc(-c2c(C)noc2C)n1,–,inactive: 1.48%
Cn1c(=Nc2ccccc2)sc2ccccc21,–,inactive: 13.6%
O=c1/c(=C\c2ccc(O)cc2)sc2n1C(c1ccccc1)C(c1ccccc1)=NN=2 (configuration not stated),"inconclusive: 25.1 µM [inhibitor, partial curve, poor fit]",–
Cc1cc(C)nc(-n2nc(C)c(Sc3ccc(F)cc3)c2N)n1,–,inactive: 34.8%
c1coc(C2Nc3cccc4cccc(c34)N2)c1,"inconclusive: 3.98 µM [inhibitor, full curve]",–
C=C1c2cccc(OC)c2O[C@H](C(=O)OCC)[C@@H]1CCCCCC,"inconclusive: 39.8 µM [inhibitor, single point]",–
CNc1cccccc1=S,"inconclusive: 25.1 µM [inhibitor, single point]",–
O=C(Cc1ccccc1)NC(=S)Nc1cccc(C(F)(F)F)c1,"inconclusive: 20 µM [inhibitor, partial curve]",–
Cc1ccc(C(CC(N)=O)c2ccco2)cc1 (configuration not stated),"inconclusive: 0.251 µM [inhibitor, full curve]",–
COCCNC(=O)CCCCCN1C(=O)CCC1=O,–,inactive: -3.79%
CC1=C(C#N)c2nc(N)c(C#N)c(C)c2/C1=C\c1ccc(C)cc1,active: 25.1 µM,–
CCC(C)(C)n1nnnc1C(c1ccc2ncccc2c1)N1CCN(c2nc3ccccc3s2)CC1 (configuration not stated),–,inactive: 5.66% [at 11.4 µM]
O=[N+]([O-])c1ccc2c(N=Nc3ccc4ccccc4c3O)c(O)cc(S(=O)(=O)O)c2c1,active: 3.98 µM,–
COc1ccc(N2C(=O)C3CC(C)=C(C)CC3C2=O)c(OC)c1 (configuration not stated),–,inactive: 13.9%
CCOc1ccc(NC(=O)c2cc3c(C)nc4ccccc4c3o2)cc1,"inconclusive: 39.8 µM [inhibitor, single point]",–
CCOC(=O)C1(C)/C(=N/Nc2ccc(Cl)cc2)C(=O)C(=O)N1c1ccccc1 (configuration not stated),"inconclusive: 10 µM [inhibitor, partial curve]",–
